The chains are these.
B1: chr5:83942588:83942842:-|3pUTR|ENSG00000164176|msi1|FALSE|unique (ssRNA)
RNA: GGGAGUUCUACAGUCCGACGAUCUUUUCUAAUUGAAUUUCCUAUUAGUUGACUAAAAGAAGUGUCAUGUUUACUCAUAUAUGUAGAACAUGACUGCCUAUCAGUAGAUUGAUCUGUAUUUAAUAUUCGUUAAUUAAAUCUGCACAACAGAGGAUUGAGCAUCA
B2: chr2:224511460:224511569:-|CDS|ENSG00000036257|unk|FALSE|bound_elsewhere (ssRNA)
RNA: GGGAGUUCUACAGUCCGACGAUCGAAAGCCAGAAAUUUUUAGCAGAAAAUAGUGCUUCAGUAUAUAUAAAGAAAGUAGAAGCUAGAAUUAAUGAAGAAAUAGAACGAGUGAUGCACUGCCUUGACAAAUCAACGGAAGAACCACAACAGAGGAUUGAGCAUCA
B3: chr10:113908677:113908778:+|3pUTR|ENSG00000196865|unk|total|mutant (ssRNA)
RNA: GGGAGUUCUACAGUCCGACGAUCAGCUAUGCUCCUUACUUACUUCUUUUAUUAUAAACAAAUUCCUUUGCUUUGGCUGAUACCCGCUGAGUCAUUGAUCAUCAUUGGUACCAUGAUAUUGUAAUCUAUGCUGCUAUUUGGCACCAACAGAGGAUUGAGCAUCA
B4: chr10:95606323:95606429:-|3pUTR|ENSG00000059573|unk|total|mutant (ssRNA)
RNA: GGGAGUUCUACAGUCCGACGAUCCCAUGGCUGCUUUGUGUCACCUCAGUGACUUACAGUCCCCCUUGGCAUUCCGUUGGUACCCGAGCCAGUCAUCCUUAACAAAUCUUUUCACAUUUUAUUUCUUUCACAUGCCGUCAUCUUCAACAGAGGAUUGAGCAUCA
B5: chr5:75599425:75599511:+|3pUTR|ENSG00000122008|msi1_unk|total|mutant (ssRNA)
RNA: GGGAGUUCUACAGUCCGACGAUCGAACCGCUUAAUUAAGAACUCACAGACUUUGACAAAGUGGUAACCCGACUUUUAAUUACCCGAUUCUUCAAAUCCGGCUUAAUGCCUGCCCGCAUGCCAAUCCAAUCCCAUGACUGAUGUCAACAGAGGAUUGAGCAUCA
B6: chr7:101137743:101137929:+|3pUTR|ENSG00000106366|msi1|FALSE|unique (ssRNA)
RNA: GGGAGUUCUACAGUCCGACGAUCCCACUGAGGCCCUUUGCAGGAUGGAACUACGGGGCUUACAGGAGCUUUUGUGUGCCUGGUAGAAACUAUUUCUGUUCCAGUCACAUUGCCAUCACUCUUGUACUGCCUGCCACCGCGGAGCAACAGAGGAUUGAGCAUCA
B7: chr2:80288350:80289195:-|three_prime_utr|ENSG00000162951|control|control|control (ssRNA)
RNA: GGGAGUUCUACAGUCCGACGAUCAGAUUCAGUCCCCAGUCCUCCUUCUCUGAGCAGACCUCUCAUCCGCAGCAUAUAUCUGCUAGAUCUUCUAAGAGCUGAAAUGGAGACUUCUGGAAGAAGGUGGGAAAGAAAUCCAUCUCGCAACAGAGGAUUGAGCAUCA
B8: chr6:117694021:117694122:+|CDS|ENSG00000153989|msi1|total|mutant (ssRNA)
RNA: GGGAGUUCUACAGUCCGACGAUCGCUGUCUCCGGAAGAUGGAAAAGCAGAUAUUGUAAGAGCUGCUCAGGACUUUUGCCAGUCCGCCGCCCAGAAGCAAAAGAGACCCACAGAUUUGGAUGCCGAUACGUCCGCCAGUUUACUCAACAGAGGAUUGAGCAUCA
B9: chr5:33997006:33997390:-|three_prime_utr|ENSG00000289791|control|control|control (ssRNA)
RNA: GGGAGUUCUACAGUCCGACGAUCAAUUUAUGUUACACUCAGGCUGCUGGGGGAUGCUUCAGUUUCCUUCACAGAAAACUAAAUAGUGGGAAUCCGGACCAAUAAAGAAAGGAUCAAGAAGCUAAUGAAUUAGUCGCUAAUGCUCAACAGAGGAUUGAGCAUCA
B10: chr19:9526975:9527076:-|3pUTR|ENSG00000130818|unk|total|mutant (ssRNA)
RNA: GGGAGUUCUACAGUCCGACGAUCCCUCUCAGACCUUCCAUCAUUACUAUAUUUCACUUUUAUGCCUAUAAACACACACAAAUCCGCAUAUGUAAUCUAAUACAUUGCCGCUAUUUUUCAGAAGUUAUCAGAUCAAUUAAGUAUCAACAGAGGAUUGAGCAUCA
B11: chr2:235053981:235054083:+|3pUTR|ENSG00000130147|unk|FALSE|unique (ssRNA)
RNA: GGGAGUUCUACAGUCCGACGAUCCUCCUCCAUCGAGGGAGAGGCCUGAAGGGACUGCCUACUGCAGCUCGUUGCCAAUCACAUAGCUUUCUAUUUGUUAAGUAUAAAUUUAAAUUUAAAAUCACUUUUUUAACGAAUGGGGGGCAACAGAGGAUUGAGCAUCA
B12: chr1:42278343:42278454:-|CDS|ENSG00000198815|unk|total|mutant (ssRNA)
RNA: GGGAGUUCUACAGUCCGACGAUCAAAAAGAAAAUGACUUUAAGUGAAAUUUAUCAGUGGAUUUGUGAUAACUUCCCAUAUUACCGAGAGGCUGGCAGUGGUUGGAAGGUAAGGAUUUUAUUUAAAUUAUUACUUUUAUGAAGUCAACAGAGGAUUGAGCAUCA
B13: ENSG00000204186:stop:overlap|stop_codon|ENSG00000204186|stop_codon|NA|stop_codon (ssRNA)
RNA: GGGAGUUCUACAGUCCGACGAUCAACAACGUGAGAGAAUGAUGACUCGGCUAGCAAACAAACUGAGAGGUAAUGAGGUAAAAUAGAAGUUGGUUUUGUGUUCAGGCUAGUUGAGGAUUCAGUACUUCAGUUGAAAUAUAUUUGCAACAGAGGAUUGAGCAUCA
B14: ENSG00000157823:stop:overlap|stop_codon|ENSG00000157823|stop_codon|NA|stop_codon (ssRNA)
RNA: GGGAGUUCUACAGUCCGACGAUCUCCGCUUCUACCAGCGUUUCAAGAAAUUCAACAGCAGAUUGUUCGAGAGACUUUCCAUCUAGUCCUCAAGCGGGAUGACAACAUCUGUAACUUCUUGGAGGGUGGAAGUUUGAUUGGUGGCAACAGAGGAUUGAGCAUCA

Some of the results follow.

For the test, the target named is T1, UNK ZnF1-6 (called full-length) (human, UniProt Q9C0B0 30-357).
T1 sequence: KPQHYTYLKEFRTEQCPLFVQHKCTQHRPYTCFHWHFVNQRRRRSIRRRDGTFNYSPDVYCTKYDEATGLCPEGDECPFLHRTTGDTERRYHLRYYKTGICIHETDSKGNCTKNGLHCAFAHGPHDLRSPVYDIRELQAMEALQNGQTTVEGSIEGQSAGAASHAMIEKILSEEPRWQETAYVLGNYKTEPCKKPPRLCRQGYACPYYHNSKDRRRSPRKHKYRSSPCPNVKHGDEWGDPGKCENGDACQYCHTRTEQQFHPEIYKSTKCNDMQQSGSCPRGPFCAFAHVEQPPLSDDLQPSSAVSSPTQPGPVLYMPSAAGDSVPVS
The test is described as follows: nsRBNS (natural sequence RNA bind-n-seq); RBNS binding buffer (assumed for nsRBNS): 25 mM Tris pH 7.5, 150 mM KCl, 3 mM MgCl2, 0.01% Triton X-100, 500 ug/ml BSA, 20 U/ml SUPERase-In, 4 C; UNK is unkempt and MSI1 is Musashi-1; names of the RNAs are library labels; protein concentration not given here; high values mean tight binding.
As for B1, the binding signal turned out to be 1.53 enrichment R. For B2 the value was 16.7 enrichment R. With B3, the binding signal worked out at 5.02 enrichment R.

Consider B4, for which the binding signal came to 6.24 enrichment R. For the molecule B5, the binding signal came to 0.537 enrichment R. Consider B6, for which the binding signal stood at 0.502 enrichment R. As to B7, the binding signal is 0.527 enrichment R.

With B8, the binding signal is 0.562 enrichment R.

B9 gave a binding signal of 0.584 enrichment R. For B10 the value was 2.25 enrichment R; for B11, 2.97 enrichment R. Regarding B12, the binding signal stood at 1.7 enrichment R. As for B13, the figure is 4.96 enrichment R. The molecule B14 returned a binding signal of 0.633 enrichment R.
